This passage reports Kd results from patent US20180195054A1 (Stanford University, published 2018).

The assay has as its target T1, biotinylated CD47 IgSF domain (human CD47 residues 19-135 / residues 1-117, C15G) (human, UniProt Q08722 fragment, biotinylated with BirA ligase at the C-terminal biotin acceptor peptide tag).
T1 construct: range 19-135; Captured on a Biacore SA chip for SPR; C15G is counted on the mature domain (1-117), not on the precursor; also called immobilized CD47
Briefly: SPR (Biacore T100, 25 C), biotinylated CD47 captured on SA chip, SIRPα variant in solution, 1:1 Langmuir model. The procedure:
SPR experiments were conducted on a Biacore T100 instrument at 25° C. Experiments used a Biacore SA sensor chip (GE Healthcare) to capture biotinylated CD47 at a surface density of approximately 150 RU. An unrelated biotinylated protein was immobilized as a reference surface for the SA sensor chip with matching RU to the experimental surface. Serial dilutions of unbiotinylated SIRPα variants in the running buffer [1×HBS-P (GE Healthcare)] were flowed over the chip at a rate of 50 μL/min. CD47 was regenerated using three 30 second injections of 2M MgCl₂. Data was analyzed using the Biacore T100 evaluation software version 2.0 with a 1:1 Langmuir binding model.
Experiments were conducted with a Biacore T100 at 25° C. Protein concentrations were quantified by 280 nm absorbance with a Nanodrop2000 spectrometer (Thermo Scientific). A Biacore SA sensor chip (GE Healthcare) was used to capture biotinylated CD47 (Rₘₐₓ ˜150 RU). An unrelated biotinylated protein was immobilized with an RU value matching that of the […] to control for nonspecific binding. Measurements were made with serial dilutions of the SIRPα variants in HBS-P+ buffer (GE Healthcare). The CD47 surface was regenerated by three 60 second injections of 2 M MgCl₂. All data were analyzed with the Biacore T100 evaluation software version 2.0 with a 1:1 Langmuir binding model.

T1 sequence (Q08722 other isoform, or with tags, fused parts or gaps C15G C15G limits assumed): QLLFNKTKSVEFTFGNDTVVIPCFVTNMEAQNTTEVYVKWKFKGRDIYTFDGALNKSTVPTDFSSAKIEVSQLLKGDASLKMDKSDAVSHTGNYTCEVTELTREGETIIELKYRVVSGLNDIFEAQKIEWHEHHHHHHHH

B1: wild-type SIRPα allele 1 d1 domain monomer (receptor)
chain: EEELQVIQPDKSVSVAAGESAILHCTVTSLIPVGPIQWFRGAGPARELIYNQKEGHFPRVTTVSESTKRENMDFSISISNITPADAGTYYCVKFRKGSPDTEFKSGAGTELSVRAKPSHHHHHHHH
notes: also called WTa1; WTa1 mono
Consider B1, for which the Kd is 279 nM.
